Where a chain is given by its changes, count along the chain named. Names and notes keep the numbering of the source. Results are given in words; binding and its absence hold for the method and conditions named. In cells and extracts the contact can be indirect. Some entries that bind do so weakly or less than the wild type. Values belong to the binder of their own block, whether it stands above or below them.
How the values were obtained:
Assay in all cases: FRET or BRET; BRET in live HEK293 cells transfected with equimolar YFP and Rluc fusion constructs; read 48 h after transfection, after 4 h at 37 °C with 60 µM EnduRen; corrected BRET ratio, YFP-NLS and Rluc-NLS as control proteins
[1] = molecular target: T1, TBR1 (T-box brain, 1), wild type (human) (UniProt Q16650)
T1 sequence: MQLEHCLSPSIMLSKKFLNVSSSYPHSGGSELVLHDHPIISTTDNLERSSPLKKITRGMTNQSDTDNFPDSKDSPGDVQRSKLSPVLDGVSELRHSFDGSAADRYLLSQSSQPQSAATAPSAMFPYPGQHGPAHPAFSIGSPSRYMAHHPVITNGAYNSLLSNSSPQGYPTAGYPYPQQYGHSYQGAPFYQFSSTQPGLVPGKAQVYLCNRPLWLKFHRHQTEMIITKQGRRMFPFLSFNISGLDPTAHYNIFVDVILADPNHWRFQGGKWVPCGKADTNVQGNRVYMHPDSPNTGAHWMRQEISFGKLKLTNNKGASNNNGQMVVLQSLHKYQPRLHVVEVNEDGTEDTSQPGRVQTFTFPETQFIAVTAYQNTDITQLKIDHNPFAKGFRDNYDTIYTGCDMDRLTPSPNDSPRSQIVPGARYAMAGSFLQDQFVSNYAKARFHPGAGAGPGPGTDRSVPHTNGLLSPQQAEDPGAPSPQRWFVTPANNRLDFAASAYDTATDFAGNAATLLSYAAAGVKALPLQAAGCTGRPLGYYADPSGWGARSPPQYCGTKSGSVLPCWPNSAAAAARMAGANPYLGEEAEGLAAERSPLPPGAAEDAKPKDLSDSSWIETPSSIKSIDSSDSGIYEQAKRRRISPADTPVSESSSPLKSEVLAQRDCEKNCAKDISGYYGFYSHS

Amino acid sequences for entries named in this document (tags omitted). A change or cut given only in a name is not applied to a line headed by its entry. Chains listed by the source or under a name are the forms on record and can include a tag or linker.
BCL11A-L (773 amino acids) (Q9H165, form named): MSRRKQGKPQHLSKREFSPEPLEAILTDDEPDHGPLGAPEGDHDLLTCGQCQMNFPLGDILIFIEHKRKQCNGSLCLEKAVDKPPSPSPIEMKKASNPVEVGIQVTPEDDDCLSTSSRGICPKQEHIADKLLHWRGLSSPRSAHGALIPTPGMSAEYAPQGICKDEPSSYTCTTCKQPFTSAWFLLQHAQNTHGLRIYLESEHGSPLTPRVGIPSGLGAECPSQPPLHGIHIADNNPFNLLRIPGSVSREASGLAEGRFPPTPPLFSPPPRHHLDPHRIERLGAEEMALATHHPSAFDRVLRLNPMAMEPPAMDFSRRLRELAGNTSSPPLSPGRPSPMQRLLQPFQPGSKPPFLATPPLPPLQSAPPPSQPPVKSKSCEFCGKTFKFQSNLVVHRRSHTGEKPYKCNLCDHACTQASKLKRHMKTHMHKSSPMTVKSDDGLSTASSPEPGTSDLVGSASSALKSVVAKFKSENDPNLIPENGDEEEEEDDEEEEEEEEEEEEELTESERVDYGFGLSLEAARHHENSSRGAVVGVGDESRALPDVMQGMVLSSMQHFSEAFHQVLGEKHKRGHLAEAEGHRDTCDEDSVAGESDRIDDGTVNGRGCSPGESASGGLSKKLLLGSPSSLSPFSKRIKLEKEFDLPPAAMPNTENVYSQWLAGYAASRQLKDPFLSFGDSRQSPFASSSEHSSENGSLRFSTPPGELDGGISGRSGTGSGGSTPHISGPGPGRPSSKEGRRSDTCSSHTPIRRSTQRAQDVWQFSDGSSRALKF

TBR1 p.K389E (human) = TBR1 p.K389E (human) (UniProt Q16650)
[2] = molecular target: BCL11A-L (773 amino acids) (human) (UniProt Q9H165)
FOXP2 (human) = FOXP2 (human) (UniProt O15409)
FOXP1 (human) = molecular target: T2, FOXP1 (human) (UniProt Q9H334)
T2 sequence: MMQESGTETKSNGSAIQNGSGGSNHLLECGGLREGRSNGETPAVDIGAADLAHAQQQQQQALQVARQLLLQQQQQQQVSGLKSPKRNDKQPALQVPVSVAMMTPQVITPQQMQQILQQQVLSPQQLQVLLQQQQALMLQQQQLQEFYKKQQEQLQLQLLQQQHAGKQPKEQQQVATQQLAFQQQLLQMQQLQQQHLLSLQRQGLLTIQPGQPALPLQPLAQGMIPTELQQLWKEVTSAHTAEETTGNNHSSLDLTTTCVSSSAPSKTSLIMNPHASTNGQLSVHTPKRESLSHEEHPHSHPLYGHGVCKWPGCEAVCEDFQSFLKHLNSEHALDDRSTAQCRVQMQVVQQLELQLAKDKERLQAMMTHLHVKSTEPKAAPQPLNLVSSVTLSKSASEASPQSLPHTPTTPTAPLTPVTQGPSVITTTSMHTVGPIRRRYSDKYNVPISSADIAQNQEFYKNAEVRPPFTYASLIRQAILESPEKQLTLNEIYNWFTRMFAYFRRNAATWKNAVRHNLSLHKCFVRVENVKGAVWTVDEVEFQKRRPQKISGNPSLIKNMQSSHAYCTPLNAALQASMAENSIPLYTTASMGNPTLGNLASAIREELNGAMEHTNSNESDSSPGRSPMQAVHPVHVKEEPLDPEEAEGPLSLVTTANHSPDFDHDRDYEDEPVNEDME

FOXP2 (human), O15409 = molecular target: T3, FOXP2 (human), O15409; details: remark: other sources report otherwise
T3 chain: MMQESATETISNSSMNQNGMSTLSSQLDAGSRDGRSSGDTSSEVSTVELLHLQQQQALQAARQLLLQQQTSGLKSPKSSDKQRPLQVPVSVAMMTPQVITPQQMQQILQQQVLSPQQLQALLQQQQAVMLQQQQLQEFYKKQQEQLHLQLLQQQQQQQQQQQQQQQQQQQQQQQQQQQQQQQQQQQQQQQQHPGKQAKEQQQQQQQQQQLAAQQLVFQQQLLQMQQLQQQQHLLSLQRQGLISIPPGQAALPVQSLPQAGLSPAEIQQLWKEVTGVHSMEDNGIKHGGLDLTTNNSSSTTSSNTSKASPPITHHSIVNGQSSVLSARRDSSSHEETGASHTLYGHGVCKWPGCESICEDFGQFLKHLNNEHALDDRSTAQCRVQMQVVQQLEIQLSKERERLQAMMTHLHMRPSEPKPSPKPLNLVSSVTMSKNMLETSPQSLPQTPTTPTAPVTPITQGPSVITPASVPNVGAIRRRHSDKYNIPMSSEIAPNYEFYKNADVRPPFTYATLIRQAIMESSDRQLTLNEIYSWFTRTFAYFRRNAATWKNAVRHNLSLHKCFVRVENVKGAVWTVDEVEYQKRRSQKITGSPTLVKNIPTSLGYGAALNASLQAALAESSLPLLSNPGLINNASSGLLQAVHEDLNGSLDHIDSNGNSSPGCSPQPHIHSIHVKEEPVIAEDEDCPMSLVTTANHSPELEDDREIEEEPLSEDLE

FOXP1 (human), Q9H334 = molecular target: T4, FOXP1 (human), Q9H334; details: remark: other sources report otherwise
T4 chain: T2 sequence

binding [1]: binds
binding (TBR1 p.K389E (human)): binds
binding [2]: binds
binding (FOXP2 (human)): no binding
binding (FOXP1 (human)): no binding
B1: TBR1 p.K389E (protein, UniProt Q16650-1 1-682)
chain: T1 sequence with K389E

binding (FOXP2 (human), O15409): binds
binding (FOXP1 (human), Q9H334): binds
B2: TBR1 (T-box brain, 1), wild type, Q16650-1 1-682 (protein)
chain: T1 sequence

Source: article PMC6155134
